The other results are listed elsewhere or left out. No stated cut-off is given here; in the data, active = 3.2 or more and inactive = the rest. Only a few entries rise above the background.
What was measured:
Assay in all cases: enrichment score (SH2-bound / input frequency) (ratio); bacterial display of known human phosphotyrosine sites (pTyr-Var adds point mutants) read by sequencing; higher = stronger binding; tyrosines were phosphorylated by kinases first
Conditions in all cases: peptide library: Human pTyr
[1] = target: SHP2 C-SH2 domain E139D
[2] = target: SHP2 C-SH2 domain wild-type
[3] = target: SHP2 N-SH2 domain L43F
[4] = target: SHP2 N-SH2 domain T42A
[5] = target: SHP2 N-SH2 domain T52S
[6] = target: SHP2 N-SH2 domain wild-type

Measured: enrichment score
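Further: displayed peptides selected on beads carrying the immobilized SH2 domain, with library peptides lacking any tyrosine serving as negative controls.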

DTRDNVAYADEEGGG [CADH1_HUMAN_754_YA]
inactive: [1] 1.15 | [2] 0.974 | [3] 0.959 | [4] 0.933 | [5] 0.842 | [6] 1.06

GTKGGVSYRPAEVAE [CAH9_HUMAN_449]
inactive: [1] 0.889 | [2] 0.62 | [3] 0.665 | [4] 0.826 | [5] 0.832 | [6] 0.941

VSRNAAEYLLSSGIN [ABL1_HUMAN_139]
inactive: [1] 0.552 | [2] 0.537 | [3] 0.581 | [4] 0.496 | [5] 0.592 | [6] 0.682

ADKDRSGYIDEHELD [CALB2_HUMAN_214_YA]
inactive: [1] 0.944 | [2] 1.2 | [3] 1.02 | [4] 1.21 | [5] 1.17 | [6] 1.14

FDKDGNGYISAAELR [CALM_HUMAN_100]
inactive: [1] 0.793 | [2] 1.3 | [3] 0.506 | [4] 0.742 | [5] 0.739 | [6] 0.746

NDAQSFDYDHDAFLG [CALU_HUMAN_47]
inactive: [1] 0.673 | [2] 0.54 | [3] 0.695 | [4] 0.677 | [5] 0.73 | [6] 0.701

YPDTEEIYKLTGTGP [CAMP1_HUMAN_1537]
inactive: [1] 0.867 | [2] 0.414 | [3] 0.593 | [4] 0.538 | [5] 0.636 | [6] 0.787

TSDMHRGYADSPSKA [CAP1_HUMAN_31]
inactive: [1] 0.755 | [2] 0.464 | [3] 0.698 | [4] 0.771 | [5] 0.791 | [6] 0.638

TDSEEQPYLEMDLSS [CASP8_HUMAN_380]
inactive: [1] 1.15 | [2] 0.838 | [3] 0.896 | [4] 0.981 | [5] 1.23 | [6] 1.43

EKSDPDGYEFLEILK [CASQ2_HUMAN_282]
inactive: [1] 1.12 | [2] 0.851 | [3] 0.881 | [4] 0.871 | [5] 0.822 | [6] 0.912

NANGEAVYCKFHAKT [CAT_HUMAN_231_YA]
inactive: [1] 1.22 | [2] 0.947 | [3] 1.06 | [4] 0.922 | [5] 1.15 | [6] 1.13

ARARVANYQRDGPMC [CAT_HUMAN_386_YA]
inactive: [1] 0.714 | [2] 0.742 | [3] 0.719 | [4] 0.573 | [5] 0.659 | [6] 0.858

DDADAGRYSPRLLTA [CATIN_HUMAN_559_YA]
inactive: [1] 0.626 | [2] 0.369 | [3] 0.465 | [4] 0.477 | [5] 0.408 | [6] 0.518

GGMSGGKYVDSEGHL [CAV1_HUMAN_6]
inactive: [1] 0.804 | [2] 0.468 | [3] 0.563 | [4] 0.746 | [5] 0.701 | [6] 0.61

SHHSGLEYADPEKFA [CAV2_HUMAN_27]
inactive: [1] 0.678 | [2] 0.723 | [3] 0.687 | [4] 0.719 | [5] 1.06 | [6] 0.785

TQEQYELYCEMGSTF [CBL_HUMAN_371]
inactive: [1] 1.75 | [2] 1.77 | [3] 1.59 | [4] 1.4 | [5] 1.88 | [6] 1.77

TNRTSQDYDQLPSCS [CBLB_HUMAN_889]
inactive: [1] 1.1 | [2] 0.609 | [3] 0.631 | [4] 0.927 | [5] 0.956 | [6] 0.759

GGSVVASYPFDDSPE [CBPD_HUMAN_265]
inactive: [1] 0.611 | [2] 0.543 | [3] 0.488 | [4] 0.552 | [5] 0.534 | [6] 0.548

ILLTIDRYLAIVHAV [CCR1_HUMAN_132]
inactive: [1] 2.87 | [2] 3.16 | [3] 2.68
active: [4] 3.22 | [5] 3.48 | [6] 3.83

AGSPLKAYTPVVVTQ [CD11A_HUMAN_582_YA]
inactive: [1] 1.03 | [2] 0.761 | [3] 0.817 | [4] 1.49 | [5] 0.903 | [6] 0.843

EEEEGEGYEEPDSEE [CD19_HUMAN_409]
inactive: [1] 1.03 | [2] 0.815 | [3] 0.719 | [4] 0.785 | [5] 0.662 | [6] 0.651

TSLGSQSYEDMRGIL [CD19_HUMAN_500]
inactive: [1] 0.742 | [2] 0.468 | [3] 0.453 | [4] 0.531 | [5] 0.723 | [6] 0.414

DDTREDIYVNYPTFS [CD226_HUMAN_322]
inactive: [1] 0.924 | [2] 0.832 | [3] 0.936 | [4] 0.807 | [5] 0.8 | [6] 1.18

DDTREDIYVNAPTFS [CD226_HUMAN_322_YA]
inactive: [1] 0.651 | [2] 0.668 | [3] 0.706 | [4] 0.545 | [5] 0.603 | [6] 0.622

TRKHAQPYAPPRDFA [CD28_HUMAN_209_YA]
inactive: [1] 1.85 | [2] 2.32 | [3] 1.86 | [4] 2.14 | [5] 2.5 | [6] 2.61

VDQVEVEYVTMASLP [CD300LF_HUMAN_236]
inactive: [1] 0.85 | [2] 0.849 | [3] 0.812 | [4] 1.32 | [5] 0.743 | [6] 0.817

ERLGEDPYATENGGG [CD34_HUMAN_329_YA]
inactive: [1] 0.734 | [2] 0.765 | [3] 0.829 | [4] 0.814 | [5] 0.743 | [6] 0.767

KNPQEGLYNELQKDK [CD3Z_HUMAN_111]
inactive: [1] 0.868 | [2] 0.793 | [3] 0.655 | [4] 0.831 | [5] 0.693 | [6] 0.869

KDKMAEAYSEIGMKG [CD3Z_HUMAN_123]
inactive: [1] 1.86 | [2] 0.858 | [3] 0.909 | [4] 0.855 | [5] 1.09 | [6] 1

NLGRREEYDVLDKRR [CD3Z_HUMAN_83]
inactive: [1] 0.865 | [2] 0.744 | [3] 0.887 | [4] 0.917 | [5] 0.717 | [6] 0.917

DNSSDSDYDLHGAQR [CD5_HUMAN_487]
inactive: [1] 0.583 | [2] 0.42 | [3] 0.597 | [4] 0.532 | [5] 0.477 | [6] 0.593

TAPESLAYNKFSIKS [ABL1_HUMAN_413]
inactive: [1] 1.13 | [2] 0.926 | [3] 1.02 | [4] 0.928 | [5] 1.02 | [6] 1.07

GLDPVEVYESLPEEL [CDC37_HUMAN_298]
inactive: [1] 1.28 | [2] 1.12 | [3] 1.34 | [4] 1.22 | [5] 1.23 | [6] 1.34

KQPIPAAYNRYDQER [CDC73_HUMAN_290]
inactive: [1] 1.18 | [2] 0.92 | [3] 1.01 | [4] 1.12 | [5] 1.15 | [6] 1.2

EKLRVLGYNQNGEWS [ABL2_HUMAN_139]
inactive: [1] 0.825 | [2] 0.545 | [3] 0.607 | [4] 0.555 | [5] 0.748 | [6] 0.816

KIDTMGTYHGMTLKS [CDC73_HUMAN_315]
inactive: [1] 0.893 | [2] 0.892 | [3] 0.797 | [4] 0.998 | [5] 0.819 | [6] 1.04

From the supplement of paper PMC10369915
